Consider 44 sequences from the supplement of paper PMC11417369.

± gives the standard deviation of the averaged measurements. This is one part of the list.

The assay concerns PfAP2-EXP AP2 domain (GST-tagged). Kind of assay: gcPBM binding intensity (ln(normalized median fluorescence intensity)); higher = stronger DNA binding. Summed up: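 An Agilent 4 × 180k array of primer-extended double-stranded 36-bp intergenic genomic probes, with negative controls, was incubated for 1 h with GST-tagged P. falciparum DNA-binding domains expressed in E. coli. Alexa488 anti-GST antibody detected bound protein, scanned at 488 nm. Binding intensity is the highest Masliner-normalised natural-log median intensity across replicate spots of either probe orientation.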
For the sequence “GTATATATATATATATATATAATAGTAACTTTTACT [CACACA_negctrl_site608]”, the “gcPBM binding intensity (ln)” value is 8.66 ± 0.099. Next, “TTATTCTACATATATGCATGTGTATGATCTGTTTAT [TGCATGCA_site782]”: 8.73 ± 0.23; “CATATATACCTATATACACACATATAGATTTATATA [CACACA_site6451]”: 8.31 ± 0.35; “TGATATTATCTCTTCACACACTCACATACAGACAAA [CACACA_site1246]”: 8.64 ± 0.44.

For “ATATAAATGATATGTACACACATTTATATATATAAA [CACACA_site3475]”, the “gcPBM binding intensity (ln)” value was 8.49 ± 0.33. In the case of “AAAATAAAAAAAATGTAAAAGGTTAAAGTGAAATAT [CACACA_negctrl_site350]”, the “gcPBM binding intensity (ln)” value turned out to be 8.96 ± 0.39. For “TATTTGATAAAAAAAAGTACTAGAATTTCGCTTTTG [XGTACX_site7754]” the value was 8.4 ± 0.4; for “ATTTATTTATATACAAGTACATAAAAAATTAACTTA [XGTACX_site6170]”, 8.065 ± 0.007. For “TAAAAATTAAAATGTTGTACAATGATAAAATATTAT [XGTACX_site7874]” the value was 8.71 ± 0.26.

With “AAATTATAAAATAACTGTACCAATCCTTTTTTTTTA [XGTACX_site2229]”, the “gcPBM binding intensity (ln)” value came to 8.16 ± 0.42. For “CTCAACATATACGTAACACACATATAAATATAAATA [CACACA_site7749]” the value was 8.56 ± 0.56.

In the case of “TAAATTGAAATATATTGTACATTATCAACTAAGGGA [XGTACX_site1635]”, the “gcPBM binding intensity (ln)” value turned out to be 8.49 ± 0.42.

“ATATGTACATATCTCATGCACTTAACAAAAAAAAAG [GTGCAC_site9898]”: the “gcPBM binding intensity (ln)” value came out at 8.71 ± 0.29. Next, “TAAAGAGTCATGTGGTGTACCTGCTTCACCACATAT [XGTACX_site1288]”: 8.29 ± 0.4.

With “TTATTTTTAATATCGGTGCAACAAAAAGGAAAAGAT [GTGCAC_site9482]”, the “gcPBM binding intensity (ln)” value is 9.22 ± 0.39. As for “TATATATTCATAAAGTGTACATGTTTATATATATAT [XGTACX_site7585]”, the “gcPBM binding intensity (ln)” value amounted to 9.72 ± 0.47.

As for “TATGTATAGATATATACACACTTCTGTGATACGAAA [CACACA_site7003]”, the “gcPBM binding intensity (ln)” value worked out at 8.35 ± 0.45. Next, “CCATAGATATTTTATACACACATATAATATATTAAT [CACACA_site373]”: 8.54 ± 0.62.

Take “GATGATTCAATTTATGCACACTAAAAATTAATTATA [CACACA_site4308]”: the “gcPBM binding intensity (ln)” value was 8.46 ± 0.28. For “AAATAATATATTCCTTGTACTTATTTCAATGAATTC [XGTACX_site7719]”, the “gcPBM binding intensity (ln)” value is 8.48 ± 0.45.

Regarding “ATAATCTGACAAATGTGTACACATATATATATATAT [XGTACX_site2379]”, the “gcPBM binding intensity (ln)” value was found to be 10.3 ± 0.34. With “ACCAAAAGGGGATGTAGTACAATATGATTAGAAGAA [XGTACX_site3773]”, the “gcPBM binding intensity (ln)” value is 9.1 ± 0.52. “AAAATACCCGGACACACACACATATATATATATATT [CACACA_site6137]”: the “gcPBM binding intensity (ln)” value is 8.83 ± 0.31. “TAACTTCAAACAAAATATGGTAAAAGTGGTTGAAAA [CACACA_negctrl_site42]”: the “gcPBM binding intensity (ln)” value came to 8.68 ± 0.49. For “GATATGATTAACTTATGTTATTCTTGATGGTTTCTT [GTGCAC_negctrl_site411]”, the “gcPBM binding intensity (ln)” value turned out to be 8.36 ± 0.47. For “TAATTTGTTAAAGGTTCACATATGGTATATACTTCT [XGTACX_negctrl_site292]” the value was 8.62 ± 0.32; for “TAATAAGGTTACAACAAACACACAAAGGAATATACA [CACACA_site4089]”, 9.1 ± 0.44. Next, “TTATAAAACCATGTCATCAACATAGGCACAAAAATG [CACACA_negctrl_site1160]”: 8.6 ± 0.35; “TATCACAAAATATACTGTACATACAGGCAGTAATAT [XGTACX_site2487]”: 8.71 ± 0.34.

For “AAGAATCACCAAATATGTACACACCTTAACATGTTT [XGTACX_site4272]”, the “gcPBM binding intensity (ln)” value came to 8.85 ± 0.48.

Regarding “CCACTGTATGAATGCACACATTCATAGAATTGCTAT [CACACA_site2676]”, the “gcPBM binding intensity (ln)” value was 8.79 ± 0.28. Next, “GATATGTACTAATACACACACATATATATATATATA [CACACA_site1022]”: 10 ± 0.43. “ATAATTTTTATTTGTACACACATACAGATATATTAT [CACACA_site4701]”: the “gcPBM binding intensity (ln)” value was determined as 8.58 ± 0.23.

For “GATATAGATATTAATTGTACATATTATTTATTGTTA [XGTACX_site846]”, the “gcPBM binding intensity (ln)” value came to 8.53 ± 0.36. On to “TTCTAAAAAGGGTGTACACAAACGAATGGAAAATAA [CACACA_site5483]”, for which the “gcPBM binding intensity (ln)” value amounted to 9.24 ± 0.32. For the sequence “AAATATATATATATATGTACACACACACATATAAAT [XGTACX_site847]”, the “gcPBM binding intensity (ln)” value was 8.5 ± 0.3.

Consider “CACACTAAAAGACACACACACACACGCATATAAATA [CACACA_site7874]”, for which the “gcPBM binding intensity (ln)” value was determined as 8.68 ± 0.64.

As to “TAGTGTAAAAAATACGCATGTGTACAAATATAATAA [TGCATGCA_site498]”, the “gcPBM binding intensity (ln)” value is 9.08 ± 0.44. “ATTAAACATACATATACACACACACCCACCCACCCA [CACACA_site8057]”: the “gcPBM binding intensity (ln)” value was determined as 9.56 ± 0.47. Next, “TTGTAGGAATTTATTTTGACTGATAATTAATACGTT [GTGCAC_negctrl_site46]”: 8.12 ± 0.42; “AATAATACGTTAAATGTTCTTACAAGTTGGTTTCAT [CACACA_negctrl_site1029]”: 8.54 ± 0.4. Next, “TAAAGGTGTAAAACTGCATGCTGGAGAAAAGTAAAA [TGCATGCA_site591]”: 9.72 ± 0.49; “AAAAAAAAAAAAAAGTGTACCTTATTATACTTTAAT [XGTACX_site8439]”: 8.2 ± 0.26. Next, “AAAAAAAAATTTGTATCACACACGTATTATAAAAAA [CACACA_site6]”: 8.32 ± 0.43.
